Experimental data published in the supplement of paper PMC11417369.
± gives the standard deviation of the averaged measurements. The list shows a part of the results.

Tested on: PfAP2-G AP2 domain (GST-tagged)
Test: gcPBM binding intensity (ln(normalized median fluorescence intensity)); higher = stronger DNA binding
Method in brief: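 The binding buffer was 1× PBS containing 1% milk, 0.2 mg/ml BSA, 0.5% salmon testes DNA and 0.03% Triton X-100. In it, GST-tagged P. falciparum DNA-binding domains expressed in E. coli were applied for 1 h to an Agilent 4 × 180k array of primer-extended double-stranded 36-bp intergenic genomic probes plus negative controls. Binding intensity, read with Alexa488 anti-GST antibody and a 488 nm scan, is the highest Masliner-normalised natural-log median intensity across replicate spots of either probe orientation.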

Sequence	gcPBM binding intensity (ln)
AATAGTACAAAAAAAAAAAAAAAAAAAAAAAAAAAA [CACACA_negctrl_site1376]	10.6 ± 0.92
TAAAAAGAAAAAAAGAGTACAAACAAAATAATAATT [XGTACX_site6071]	11.2 ± 0.64
TATTTGCAATGCAAATGTACATGAATTTTTTTAATG [XGTACX_site7474]	11.1 ± 0.73
TATAACTATAAAAGGAGTACTATATATATATATATA [XGTACX_site1388]	11.3 ± 0.93
ACTTATTTATTTTTAGTGCATTTAGTTTTATTTTAT	10.2 ± 0.13
AAGAAAAATGTGTTTTTTTTTTTTTTTTTTTTCAAT [TGCATGCA_negctrl_site404]	9.605 ± 0.035
CTTTTTTTTTTAAATAGTACTTTCTCGTATACTCAT [XGTACX_site1842]	11 ± 0.52
TGTGAAATAAAATTTATACACACTTGCTAAATGATC [CACACA_site181]	9.85 ± 0.13
TTTTTTTATTTTTGTTGTACTTATAATTCTGTAAAA [XGTACX_site7344]	11.5 ± 0.77
TATAAATATAAATACACACACACACGCCAAAGCGTA [CACACA_site6181]	10.2 ± 0.22
AAGTTTTTTTCTTTTTTTCTCTCTTTTTTTTTTTTT [XGTACX_negctrl_site613]	9.54 ± 0.3
TACAAATTAATATGTACACACAAATATAAATATGTA [CACACA_site7016]	11.5 ± 0.98
TACGTTATATACAACTGTACTTGGATAATTATTAAC [XGTACX_site5614]	11.3 ± 0.73
TTTTTTATTTATTGTTATACATCTTACTACTTATAA [GTGCAC_negctrl_site381]	10.1
AATATATTTATATATAGTACTTTTATAATATCGTTT [XGTACX_site6658]	11 ± 0.56
AATACACATAATACATGTACTCACATTGTTATAACA [XGTACX_site4129]	11.4 ± 1
GATATGATTAACTTATGTTATTCTTGATGATTACGT [CACACA_negctrl_site354]	9.68 ± 0.11
CTTAAATCTACTATTTGTACATATTTTATTATTAAA [XGTACX_site6151]	10.9 ± 0.49
TATTATAATAAAATATGTACACACATACACACATAT [XGTACX_site2360]	11.5 ± 0.86
CCCAATAATTAAACAACACACATATATATCTGTAAT [CACACA_site5667]	9.78 ± 0.042
ATAAAATGGGCAAACACACACAAAAAAAAGATATAT [CACACA_site1648]	10.3 ± 0.35
AGGGGCGAAACAAAGGTGCTTTTATAAAATATGTAA	9.98 ± 0.21

Sequence	gcPBM binding intensity (ln)
AGAAATCATCTGAATTGTACTAACAATTTTTTTTAA [XGTACX_site6191]	11.1 ± 0.88
AGAGAAGAAAACAAAACACACACATATATCTTAATA [CACACA_site8699]	9.88 ± 0.057
AACTTAAAAAAAAAAAAAAAAAAAAAAAAAAAAAAA [GTGCAC_negctrl_site34]	9.64 ± 0.26
ATATATATATATATATGTACTTATTTATTTTATATA [XGTACX_site8810]	11.5 ± 1.1
TATATATATATAAAGGTGCATATCTTTACGTATGTC [GTGCAC_site9665]	10.2 ± 0.26
ATATATATATATGATACATGCATATATTTTTTCTTC [TGCATGCA_site216]	9.85 ± 0.28
TTTTTTTTATCAAATTGTACATATACAAAGGTGATC [XGTACX_site8054]	11 ± 0.78
ATTTTATTTTTTAATAGTACTCATTTTTTATGTGAA [XGTACX_site5494]	11.1 ± 0.76
TAGATAAAATTAAAATGTACAAACCTTTTCCCTTAT [XGTACX_site1136]	10.6 ± 0.32
TACACGCAGAAACACACACACACACCCATATATATA [CACACA_site637]	10.1 ± 0.25
TATCACATATTATGATGTACAAAGATTCTGACTAAT [XGTACX_site2770]	10.7 ± 0.47
AACACCAAACAAAGGTGTACATATAGGAAAAAATCT [XGTACX_site1006]	11.3 ± 0.81
AGAGGGGAAAACATGATGCACTAGTATAACCAAGAA	10.2 ± 0.14
TTTCCTTATAAAAATACACACAAACTTTCATTAAAA [CACACA_site5953]	10.1 ± 0.11
TCATATTATTATATATGTACATACCAATATATTATA [XGTACX_site2988]	11.2 ± 0.79
TAGATATGTCTAAAAAGTACTTTCTATAACAATTCT [XGTACX_site6678]	10.8 ± 0.44
GAATGAATGATAAATTTTTTTTTCTTTTTTTTTTTG [CACACA_negctrl_site333]	9.1 ± 0.35
AAAAAAAGAAAAAAAACACACACAAATATAAATAAA [CACACA_site8309]	9.73 ± 0.16
TATTAATTTCTTTTTTCTCATCACTTTCAAAATGAA [CACACA_negctrl_site1055]	9.72 ± 0.071
TTATGATCATTTATATGTACACATAATTTTTGTGCT [XGTACX_site5568]	11.6 ± 0.85
GTTCAAATTCTTATACCTTTTTATTGAGCCATAATA [CACACA_negctrl_site210]	9.965 ± 0.035
TGTTATATATATACAAACATACACATTTATAAACAA [TGCATGCA_negctrl_site235]	10.1 ± 0.19

Sequence	gcPBM binding intensity (ln)
AGCATATATTAAACATGTACATAAATATATTATATA [XGTACX_site1451]	11.3 ± 0.55
GATTAAATCGATAATACACACTAAATGTAAAACATT [CACACA_site4248]	10.01 ± 0.078
TTGTATTATTAAATTATAAAACCTATAATTATGGAT [GTGCAC_negctrl_site340]	9.68 ± 0.099
TTATTTTTTTCAACAAGTACTAATACAAAATAAAAC [XGTACX_site6460]	11.2 ± 0.83
TAATGATTATATGACTGTACATTTGTAGGTATAATT [XGTACX_site3373]	10.9 ± 0.65
TGATAACTAAATACATGTACAAATTAAAAAGAAAAA [XGTACX_site3080]	11 ± 0.55
TATACGTAATAATATGCACACAAATAAACTTTATAA [CACACA_site9166]	10.2 ± 0.12
ACTAGTAAATTTATATGTACATATATATATATATAG [XGTACX_site2502]	11.4 ± 0.78
AAAAAAAATACATACATACACACATATATATATATA [CACACA_site912]	9.98 ± 0.2
TCTTGGTATATTCAATATATGATTTATATAATTCAA [CACACA_negctrl_site818]	9.98 ± 0.2
ATTTATATATATCATACACACTAATATGTATATTAT [CACACA_site5816]	9.835 ± 0.007
CATATTTATAAATATAAACACACAACATTATATGCA [CACACA_site9065]	10.06 ± 0.064
TTTAATTAATAATAATATAAATTGTTCTTTTTTTTT [GTGCAC_negctrl_site176]	9.32 ± 0.17
GCAAAATAAAGAAGCACACAAAAATGAAATATATAT [CACACA_site3651]	9.985 ± 0.035
TCAAACAAAAAAGAAACACACACTAATTAAATTTTC [CACACA_site1101]	9.72 ± 0.33
ACTCTCTTATATTAAACACACATATATATATGTATA [CACACA_site2703]	10.1 ± 0.18
AATAATTTGAAGGTGATAGTATTACATGGGAAATCA [CACACA_negctrl_site301]	10.08 ± 0.014
GTACATATAAATATTACACACATTTTCATTTTTAAC [CACACA_site1986]	10.8 ± 0.35
AAATCGAACAAATTATGTACTAAAAAAAAAATTTAT [XGTACX_site6399]	11.2 ± 0.67
GTGTAGGCAAAAAGTTGTACGCCTAAAATCTATATA [XGTACX_site8912]	11.7 ± 1.1
TGTATAGGTACAATAATTATAGAGTAATTGACATTA [GTGCAC_negctrl_site183]	10.9 ± 0.67
TAAAAAGTATATGGTCGTACACTTTTGATTAATACA [XGTACX_site7804]	11.5 ± 0.76

Sequence	gcPBM binding intensity (ln)
TTATATGCATCCAAAAAGGAATGTTTTTAGAGAATC [CACACA_negctrl_site1062]	9.78 ± 0.099
ATCTTTCGAACATGTACACACAGAAAAAAAAAAAAA [CACACA_site5393]	11.3 ± 1
ATACACAAATGCATACGTACATATATATATATATAT [XGTACX_site3504]	11.4 ± 0.79
CATATAAGAATCTTCTGTACTTATAAGAAAAGACAT [XGTACX_site8135]	11.4 ± 0.87
AAAAAAAAAAAAACAACACACAATGTTTTATTTTAC [CACACA_site1613]	9.905 ± 0.021
TAAAACAAAATAACATGTACAAAAAAAAAAAAAAAA [XGTACX_site2915]	10.9 ± 0.83
ATGTAATATGTTCATGCATGTAAAATTACATTTAGA [TGCATGCA_site852]	9.89 ± 0.11
AAAAAAAAATTAAAAACACACATATATATATATATA [CACACA_site1580]	9.9 ± 0.67
ATATCTATAATAAACACACAAATAGATATAACATAT [CACACA_site7702]	10.02 ± 0.035
TATATATATATATATGTGCACATTTATTGCCTTTGC	10.4 ± 0.45
TATAAATAAAGACTTTTTTCTAACTTTTTTTTGTAT [CACACA_negctrl_site1015]	9.64 ± 0.32
TAAGTATATTTCTGCACACAAAAAAAAAAACCAAAA [CACACA_site4056]	10.3 ± 0.3
AAAATTTAATATGAATGTACATAAAAAAAAAAAAAA [XGTACX_site6719]	11 ± 0.89
ATTTAGTATTCGAAACGTACACATATATATATATAT [XGTACX_site3910]	11.4 ± 1.1
ATATATAATATAATATGTACATATAATCAATCCTGT [XGTACX_site8694]	11.2 ± 0.73
TGTAATCTGGAGAAGAGTACACAGTATCTGGTAGCT [XGTACX_site4935]	11.3 ± 0.83
ATATTTTTTTTCTTCACACACATGAGTTATAAATAA [CACACA_site7498]	10.2 ± 0.24
AATGAAACAATACCCAGTAAAAAAAAAAAATAAATA [TGCATGCA_negctrl_site205]	9.93 ± 0.36
ATTATAATTTTGTAAAGTACATATTATTATATATTA [XGTACX_site7191]	11 ± 0.73
AAGATAATTACGCACACACACACACGCCCACAACTA [CACACA_site7255]	10.8 ± 0.49
TATTTATATAATCCTATAATATTACTACTATCTTTA [GTGCAC_negctrl_site342]	9.77 ± 0.014
TAATATTTATATAATTGTACTTTGTTTGTAAATCCA [XGTACX_site7292]	11 ± 0.69
